Data as given in PMC4336329 (PLoS ONE, 2015).
Among all 310,000 compounds or so, about 14,000 (4.5%) showed an effect of 50% or more. The effect is printed as a negative number. This is one part of the list.

Molecular target: human ether-à-go-go-related gene (hERG) potassium channel (human, UniProt Q12809)
Test: primary screen, population patch clamp on CHO cells stably expressing hERG
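Note: peak tail current of the secondary pulse compared with the same well before compound.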

Chain of human ether-à-go-go-related gene (hERG) potassium channel (Q12809 whole entry, looked up): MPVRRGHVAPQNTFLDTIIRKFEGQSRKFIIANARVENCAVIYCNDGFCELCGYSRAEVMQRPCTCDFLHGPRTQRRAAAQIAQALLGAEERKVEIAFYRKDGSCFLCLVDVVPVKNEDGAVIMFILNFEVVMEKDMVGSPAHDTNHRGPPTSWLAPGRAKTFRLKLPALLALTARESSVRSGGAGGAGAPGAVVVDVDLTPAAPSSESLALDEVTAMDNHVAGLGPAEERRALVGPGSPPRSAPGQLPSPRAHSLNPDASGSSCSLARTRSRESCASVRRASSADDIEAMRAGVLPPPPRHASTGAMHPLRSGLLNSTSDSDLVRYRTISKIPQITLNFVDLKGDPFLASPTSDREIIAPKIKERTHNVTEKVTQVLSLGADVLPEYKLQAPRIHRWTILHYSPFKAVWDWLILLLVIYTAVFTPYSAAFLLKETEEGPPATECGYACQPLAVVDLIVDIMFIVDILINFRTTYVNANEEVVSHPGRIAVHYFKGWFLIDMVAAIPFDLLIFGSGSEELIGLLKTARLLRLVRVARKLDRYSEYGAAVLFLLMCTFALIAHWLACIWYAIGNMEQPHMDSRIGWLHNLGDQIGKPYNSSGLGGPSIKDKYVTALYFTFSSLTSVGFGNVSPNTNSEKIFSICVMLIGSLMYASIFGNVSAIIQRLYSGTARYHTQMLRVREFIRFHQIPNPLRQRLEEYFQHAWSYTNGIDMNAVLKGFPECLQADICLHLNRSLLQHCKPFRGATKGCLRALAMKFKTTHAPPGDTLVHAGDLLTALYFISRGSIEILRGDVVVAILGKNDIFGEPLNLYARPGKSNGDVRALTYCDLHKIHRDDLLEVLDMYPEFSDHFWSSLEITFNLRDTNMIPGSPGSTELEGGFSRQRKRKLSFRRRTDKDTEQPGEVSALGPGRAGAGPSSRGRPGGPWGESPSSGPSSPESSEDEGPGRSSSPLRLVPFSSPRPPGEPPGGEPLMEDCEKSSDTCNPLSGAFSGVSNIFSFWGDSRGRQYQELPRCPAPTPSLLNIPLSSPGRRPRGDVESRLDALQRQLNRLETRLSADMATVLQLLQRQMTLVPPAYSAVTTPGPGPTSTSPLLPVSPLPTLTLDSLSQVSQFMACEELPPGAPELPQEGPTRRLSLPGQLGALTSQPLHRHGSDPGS

Structure (SMILES) | hERG current change (%, negative = inhibition) at 10uM [%]
CC(C)c1c(C(=O)N/N=C/c2c[nH]c3ccccc23)nnn1-c1nonc1N | -6.99
O=S(=O)(c1cccc(NC(=S)NCc2ccco2)c1)N1CCOCC1 | 13.2
CCN(CC)CCOC(=O)C1(c2ccc(OC)c(OC)c2)CCCC1.Cl | -16.9
COc1ccc2[nH]cc(C(=O)CN3CCN(C(=O)c4ccco4)CC3)c2c1 | -21.5
Oc1ccc(-c2nccc(-c3ccc(Cl)cc3Cl)n2)cc1 | 1.43
Cc1ccc(-c2nn(-c3ccccc3)cc2C(=O)NCCCN2CCCC2=O)cc1 | -17.1
CC1=N/C(=C\c2ccc([N+](=O)[O-])cc2)C(=O)N1c1ccc(Br)c(C)c1 | 8.76
CC1COc2c(N3CCN(C)CC3)c(F)cc3c(=O)c(C(=O)O)cn1c23 (centres unmarked) | 18.2
CCc1ccc(Nc2n[n+](-c3ccccc3)c(-c3c(Cl)cccc3Cl)s2)cc1.[Cl-] | -27.5
COc1ccc(NC2SC(=O)N(CC(=O)O)C2=O)cc1 (centres unmarked) | 12.9
CCCCn1c(SCC(N)=O)nc2sc3c(c2c1=O)CCC3 | 2.85
CC(C)(C)C(=O)Nc1ccnn1C1CCN(C(=O)c2ccc(Cl)cc2F)CC1 | 6.16
Cc1ccc(Nc2nnc(-c3ccc(N4CCOCC4)c([N+](=O)[O-])c3)c3ccccc23)cc1 | -39.1
CC(Sc1nnc(-c2ccco2)n1C)C(=O)NC1CCCC1 (centres unmarked) | 21.7
CC(O)[C@H]1CN=C(N)N1CCCCC1CCCCC1 (some centres unmarked) | 14.8
c1cc(-c2nnc3n2CCCCC3)ccn1 | -0.982
CC/C(CC(=O)C(F)(F)F)=N\NC(=O)/C(C#N)=C/N(C)C | 22.1
COc1cccc(/C=N/NC(=O)c2cnn(-c3ccccc3)c2N)c1 | -10.6
CCOc1cccc(-c2c(C(=O)N/N=C(\C)c3cccnc3)nnn2-c2nonc2N)c1 | 8.96
Cc1cc(C)cc(Oc2coc3c(CN(C)C)c(O)ccc3c2=O)c1 | 0.854
COc1ccc(S(=O)(=O)N[C@H](C(=O)O)C(C)C)cc1 | 2.44
O=[N+]([O-])c1ccc2c(c1)ncn2CCc1ccccc1 | -8.59
CCN(CC)CC(O)COc1ccc2c(c1)c(C(C)=O)c(C)n2-c1ccccc1 (centres unmarked) | -12.4

Structure (SMILES) | hERG current change (%, negative = inhibition) at 10uM [%]
CCOc1ccccc1/C=N/NC(=O)c1nnn(-c2nonc2N)c1CN1CCCCCC1 | 12.5
CC(/C=N/NC(=O)c1nn(C)c(C)c1Br)=C\c1ccccc1 | -53.8
Cc1ccc(N2C(=O)C3C4CC(=O)C(c5ccccc54)C3C2=O)cc1 (centres unmarked) | 2.69
O=C(O)Cc1ccc(N=Cc2c(O)ccc3ccccc23)cc1 | -12.8
O=C(c1ccc(Cl)c(S(=O)(=O)N2CCOCC2)c1)N(Cc1nnc(-c2ccccc2Cl)o1)C1CC1 | -58.9
Cc1nnc(NC(=O)CSc2n[nH]c(-c3ccccc3)n2)s1 | 7.22
COc1ccc(N(CC(=O)N2CCc3ccccc32)S(=O)(=O)c2c(C)noc2C)cc1 | 10.9
COC(=O)/C=C/c1cnc2ccccc2c1 | 55.2
CCn1c(SCC(=O)c2ccc(CNC(C)=O)o2)nnc1-c1cccs1 | 3.72
Cc1ccc2c(COC(=O)c3n[nH]c4ccccc34)cc(=O)oc2c1 | 2.46
Cc1cc(C=O)c(C)n1-c1cccc(C(=O)O)c1 | 9.02
O=C(CCN1CCN(CCO)CC1)Nc1ccc(Br)cc1 | 1.76
Cl.c1coc(CNCC2OCCc3ccccc32)c1 (centres unmarked) | -11
CCC(C)OC(=O)C1C(c2ccccc2)C(C(=O)O)C1c1ccccc1 (centres unmarked) | -0.0678
Cc1ccc(C)c(CN2C(=O)C3CCCN3c3ccc(C#N)cc32)c1 (centres unmarked) | -2.38
COc1ccc(C2=NOC(COC(=O)c3ccc4ccccc4n3)C2)cc1 (centres unmarked) | 6.54
C=C1C(C(=O)Nc2ccc(OCC)cc2)C1C(=O)Nc1ccc(OCC)cc1 (centres unmarked) | 17.3
NC(=O)C1CCN(C(=O)C(=O)c2cn(CC(=O)N3CCCCCC3)c3ccccc23)CC1 | 20.1
Cc1sc(NC(=O)Nc2ccccc2)c(C(N)=O)c1C | 13.6
c1ccc2c(c1)Oc1ccccc1S2 | 14.7
O=C(CCS(=O)(=O)c1ccccc1Cl)Nc1ccc(S(=O)(=O)Nc2ncccn2)cc1 | 9.5
CCOc1cc(N2CCOCC2)c(OCC)cc1NC(=O)C1CCCC1 | 10.5
COCCn1c(C)cc(C(=O)COC(=O)c2ccc(NC(=O)CC#N)cc2)c1C | 16.6

Structure (SMILES) | hERG current change (%, negative = inhibition) at 10uM [%]
COc1ccccc1Nc1nc(N)nc(CN2CCOCC2)n1 | 10.1
C/C(=N\N=c1/scc(C)n1Cc1ccco1)c1cccc([N+](=O)[O-])c1 | 4.46
O=C(CCCCCN1C(=O)c2ccccc2C1=O)Nc1ccc(S(=O)(=O)N2CCCCC2)cc1 | -46.6
Cc1ccc(C(=O)N2CCCC(Nc3ccc(F)c(F)c3)C2)cn1 (centres unmarked) | -32.1
O=C(COc1ccccc1Cl)NCc1ccccc1 | -2.58
COc1ccc(/C=N/NC(=O)CNC(=O)/C=C/c2ccccc2OC)cc1 | -25.4
Cc1oc2c(cc(NS(=O)(=O)c3ccc(F)cc3)c3ccccc32)c1C(=O)O | 8.07
COc1ccc(Nc2oc(-c3ccc(OC)cc3)nc2C#N)cc1 | 15.5
COCc1ccc(C(=O)N2CCCC(N(C)CCc3ccc(OC)c(OC)c3)C2)s1 (centres unmarked) | -62.4
O=C1C=C(c2ccc(F)cc2OCc2ccccc2)C[C@@H](c2ccc(Cl)cc2)C1 | 6.91
C=CCN1C(=O)/C(=C\c2cccc(OC(=O)c3ccco3)c2)SC1=S | 2.37
O=C(NC1CCCC1)C1CCCN1C(=O)Oc1ccccc1 (centres unmarked) | 31.4
CCc1ccc(-c2cc(C)no2)cc1S(=O)(=O)N1CCN(C(=O)c2ccco2)CC1 | -59.6
CCOC(=O)CSc1nnc(C)c(C)n1 | -8.34
COc1cccc(C(=O)Nc2nnc(SCC(=O)NC3CCCC3)s2)c1 | 9.37
CC(C)N(Cc1ccccc1)S(=O)(=O)c1cccs1 | -5.85
CC1=C(C(=O)OCc2ccccc2)C(c2cccc([N+](=O)[O-])c2)NC(=O)N1C (centres unmarked) | -17.9
COc1ccc(OCC(=O)Nc2ccc(C)cc2)cc1 | 8.19
O=C(NCCCN1CCCC1=O)c1csc2ccccc12 | -28.2
CCOc1ccc(C2C(C(=O)C3CC3)N3C=C(C#N)C=CC3C2(C#N)C#N)cc1 (centres unmarked) | -5.27
COCCN(Cc1cc2cccc(C)c2[nH]c1=O)C(=O)c1ccccc1 | 3.44
Cc1cc(C(F)(F)F)n2ncc(C(=O)O)c2n1 | -0.0314
COc1ccc(S(=O)(=O)Nc2nnc(Cc3ccc(OC)c(OC)c3)s2)cc1 | 18.7

Structure (SMILES) | hERG current change (%, negative = inhibition) at 10uM [%]
CCCn1ncc(CN2CCN(CCc3ccccc3)C(CCO)C2)c1C (centres unmarked) | -46.9
COC(=O)CSc1nnc(-c2sc3ccccc3c2Cl)o1 | 11.1
O=C(COc1ccccc1)N1CCN(C2CC3CCC2C3)CC1 (centres unmarked) | 7.39
C=C(C)CSc1nc2sc3c(c2c(=O)n1-c1ccccc1)CCN(C)C3 | 16.6
COc1ccc(CNC(=O)c2ccc(CS(=O)(=O)c3ccc(Br)cc3)o2)cc1 | -8.03
Cc1ccccc1C(=O)NNC(=O)Nc1ccccc1 | 11.6
O=C(Nc1ccncc1)c1cc(S(=O)(=O)N2CCOCC2)ccc1Cl | -46.6
CN(C)S(=O)(=O)c1ccc(C(=O)Nc2cccc(S(=O)(=O)NC3=NCCC3)c2)cc1 | 1.88
COc1cccc(-c2cccc(NC(=O)C3CCN(Cc4cnn(C)c4)CC3)c2)c1 | -15.6
CCn1ccnc1CN(C)Cc1cn(-c2ccc(C)cc2)nc1-c1ccc(F)cc1 | -39.9
CC(=O)c1c(C)[nH]c(C(=O)OCc2ccc(Br)cc2)c1C | 25.8
COc1cc(C2CC(=O)NC3=C2C(=O)CC(C)(C)C3)cc(OC)c1O (centres unmarked) | 6.23
Cc1cc(C(=O)COC(=O)c2ccc3c(c2)OCO3)c(C)n1CC1CCCO1 (centres unmarked) | -36.2
O=C(N1CCCCC1)C12CC3CC(C1)CC(C(=O)N1CCCCC1)(C3)C2 | -5.13
CCN(CC)C(=O)CN1C(=O)COCC1=O | 3.44
C=CCSc1n[nH]c(=O)n1-c1cccc(C(F)(F)F)c1 | 11.1
COc1ccc(S(=O)(=O)C(C#N)c2nc3ccccc3nc2N2CCCC(C)C2)cc1 (centres unmarked) | 13.9
Cn1c(=O)n(C)c2cc(NS(=O)(=O)c3ccccc3)ccc21 | 4.09
C=C[C@@](C)(O)CC[C@@H]1[C@@]2(C)CCCC(C)(C)[C@@H]2CC[C@@]1(C)O | -1.93
CC(=O)NC(CCCCNC(=S)NC1CCCCC1)C(=O)O (centres unmarked) | 13
